Here are results for 42 sequences from paper PMC7819943, “Rice protein-binding microarrays: a tool to detect cis-acting elements near promoter regions in rice”.

The other results are listed elsewhere or left out.

For the assay, the target named is T1, OsWOX13 (Oryza sativa, UniProt Q5QMM3 1-267).
T1 sequence: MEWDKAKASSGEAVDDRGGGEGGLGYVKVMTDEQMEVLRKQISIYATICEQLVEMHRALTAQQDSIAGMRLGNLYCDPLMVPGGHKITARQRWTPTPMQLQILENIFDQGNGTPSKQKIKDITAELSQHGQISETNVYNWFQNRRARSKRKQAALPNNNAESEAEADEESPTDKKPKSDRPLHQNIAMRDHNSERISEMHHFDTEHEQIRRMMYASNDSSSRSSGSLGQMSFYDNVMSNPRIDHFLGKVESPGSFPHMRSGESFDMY
Description: protein-binding microarray (RPBM); PBS, 2% BSA, 51.3 ng/ul salmon testes DNA, 50 uM zinc acetate, 200 nM TF, 25 C, 1 h; high values mean tight binding. To be noted: protein: recombinant; tags: N-terminal polyhistidine and DsRed monomer fusion (pET32a); label: CyDye5-dUTP incorporated in the synthesized complementary strand; 3' TTTTT single-stranded linker to array surface; dsDNA, one strand shown. The method in brief:
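An Axon 4000B scanner gave the binding signal as per-feature fluorescence intensity in arbitrary units. This followed washing of a custom Agilent array that had been incubated for 1 h at 25 °C with 200 nM protein in PBS, 2% BSA, salmon testes DNA and 50 µM zinc acetate. The proteins were transcription factors fused at the N-terminus to polyhistidine and DsRed, expressed in E. coli BL21-CodonPlus and purified on Ni–NTA.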
In the case of “TTCATCATCAATCATCATATTAAGTTAAATCTATCTCAAACGGAGTCACCTAGTGCAG”, the binding signal is 15400 fluorescence intensity (a.u.).
With “GTAAATTGATCATTTCGATACATCAACATCCGCACAAACACGGAGTCACCTAGTGCAG” the figure was 39900 fluorescence intensity (a.u.); with “AGTACCTGATGAGTGATGACTAGTGCTTTCACAAATTCAGCGGAGTCACCTAGTGCAG”, 3400 fluorescence intensity (a.u.).
Regarding “AGAAATTAGGCTTAAAAGATTCATCTCGCAAATTAGTCGCCGGAGTCACCTAGTGCAG”, the binding signal is 3540 fluorescence intensity (a.u.).
Consider “TATTTAATTTGTGAATGTTGCATGTGATGTTCATTGAATGCGGAGTCACCTAGTGCAG”, for which the binding signal was 19900 fluorescence intensity (a.u.).
Take “TCTCATAAATAAATTAGCCAGACCATCCAAGCAACAAACGCGGAGTCACCTAGTGCAG”: the binding signal was 3550 fluorescence intensity (a.u.).
Regarding “ACTGATTTCCCGTCTATCCTGTGGCACCATTCATACTTCACGGAGTCACCTAGTGCAG”, the binding signal is 21400 fluorescence intensity (a.u.).
As for “GTCCTTCTATCTCCAAATCTAATTTGAAATTGCTACATCACGGAGTCACCTAGTGCAG”, the binding signal is 5230 fluorescence intensity (a.u.).
In the case of “CTTAATTAATTAATAGCAGCAGCAATGCCACTGTGGCCATCGGAGTCACCTAGTGCAG”, the binding signal is 53500 fluorescence intensity (a.u.).
Turning to “AATTCATACTAATTTGTTTGTACGGTGTTTCTTTTAGTTGCGGAGTCACCTAGTGCAG”, the binding signal is 6660 fluorescence intensity (a.u.).
With “AATAATTTACGGACAACCAATGTCATTTTGTGCATAGGTTCGGAGTCACCTAGTGCAG”, the binding signal is 6250 fluorescence intensity (a.u.).
For the sequence “GTATGATGGTAATTCTTGGAATTAACGCTTGTTGATATCACGGAGTCACCTAGTGCAG”, the binding signal was 5530 fluorescence intensity (a.u.).
As for “GAGCAGCAGCTTAATTGGATCATCGAATCTCGCACCGCCACGGAGTCACCTAGTGCAG”, the binding signal was 4860 fluorescence intensity (a.u.).
In the case of “CATGCGTAATGATTGATGGAATATAATGGCGTTGCCTTGCCGGAGTCACCTAGTGCAG”, the binding signal was 39900 fluorescence intensity (a.u.).
On to “ACAATCAAGTAAAATCTTAATTAGTGACATCAAAGCAATTCGGAGTCACCTAGTGCAG”, for which the binding signal is 9910 fluorescence intensity (a.u.).
With “CCTCAGATTTAATGACGAACTCTGTGGACATCTCTTGCTGCGGAGTCACCTAGTGCAG” the figure was 6450 fluorescence intensity (a.u.).
Regarding “GATGTTCAATCACGCAAGATTAAACAATCCTGAAGTTAATCGGAGTCACCTAGTGCAG”, the binding signal was 19300 fluorescence intensity (a.u.).
For “CCACAAATTAATTGATCTGCTTCCTCCTCCCCTCCTCTCACGGAGTCACCTAGTGCAG” the value was 49600 fluorescence intensity (a.u.); for “CTACACTTGATTTATCTTAACCCCTGCTTAGACTATGATTCGGAGTCACCTAGTGCAG”, 18500 fluorescence intensity (a.u.).
Take “GCGGATTGGTTGCCTGACCCTCCTCCTCCTCCTCCTCCTCCGGAGTCACCTAGTGCAG”: the binding signal was 8490 fluorescence intensity (a.u.).
As for “ATCCTATCCCATATTAATTATTCTTCGAATTAGATTCGAGCGGAGTCACCTAGTGCAG”, the binding signal is 3160 fluorescence intensity (a.u.).
With “GTTGATTTAGTTTTGAGGAGCCGGAGAGGAGAGCAGGTGTCGGAGTCACCTAGTGCAG”, the binding signal is 14300 fluorescence intensity (a.u.).
Consider “AATGATATCCAATTAATAATCTTGCTGCAACACGAAAGCTCGGAGTCACCTAGTGCAG”, for which the binding signal was 30500 fluorescence intensity (a.u.).
Regarding “TTAATGGAACTAATTTAATACTCCCTCTGTTTCATAATGTCGGAGTCACCTAGTGCAG”, the binding signal is 15800 fluorescence intensity (a.u.).
For the sequence “GTTGACTGACTCGGTCTCCTGATCGGCCCGGGCTGGTCCGCGGAGTCACCTAGTGCAG”, the binding signal is 16400 fluorescence intensity (a.u.).
For “TACGGACTAATTGGATCGGGACTATTACTACTACTTCAGGCGGAGTCACCTAGTGCAG” the value was 33200 fluorescence intensity (a.u.).
As for “ATTGTAGATTGAATTTAACCATGCGTTTGGGTATAGATTTCGGAGTCACCTAGTGCAG”, the binding signal was 37400 fluorescence intensity (a.u.).
In the case of “TTCTTACAGGCAAATTGATATATGATGCGCCATAGGGCTACGGAGTCACCTAGTGCAG”, the binding signal was 18200 fluorescence intensity (a.u.).
For “GTAATTAAAACTCAATTAATCACATATTAATGGTTTTCTTCGGAGTCACCTAGTGCAG”, the binding signal was 27800 fluorescence intensity (a.u.).
For “ATCCGTCATCTGATTTAATCTCATACGTCCGCTATCCTCCCGGAGTCACCTAGTGCAG”, the binding signal is 4210 fluorescence intensity (a.u.).
Take “TTTAATAGCTAATTTATATAATAGTTACTTATAAACATGTCGGAGTCACCTAGTGCAG”: the binding signal is 22100 fluorescence intensity (a.u.).
Consider “GAAATTGATTCCATCGTACTTCTCGATGGAAAGCTCGACGCGGAGTCACCTAGTGCAG”, for which the binding signal is 34300 fluorescence intensity (a.u.).
For the sequence “AAACAAATTTGATTTGATTTAGGTCCAACAATGGATGCAACGGAGTCACCTAGTGCAG”, the binding signal was 27100 fluorescence intensity (a.u.).
With “AAACGTAATCTAATAACAAAACAAATTACAGAACTGTAAACGGAGTCACCTAGTGCAG” the figure was 4460 fluorescence intensity (a.u.).
For “GTTAGATTAGGATCCAAAGTTTCACATATCCTCTTCTCTACGGAGTCACCTAGTGCAG” the value was 12200 fluorescence intensity (a.u.); for “AATTAACTATAGATTGAAGGACCATTCCTGTTCTGAATCTCGGAGTCACCTAGTGCAG”, 11300 fluorescence intensity (a.u.).
On to “CTCTCTCGTCTAATTTATACGGTCGAATCAAACGGTAATTCGGAGTCACCTAGTGCAG”, for which the binding signal was 5460 fluorescence intensity (a.u.).
Regarding “CACGTGTACATGATAATATTGATTGCTAGGAGATATTAGCCGGAGTCACCTAGTGCAG”, the binding signal is 12400 fluorescence intensity (a.u.).
For “TTAACTAACATCTATATGAATTTAGACACGTATATGATGCCGGAGTCACCTAGTGCAG” the value was 3280 fluorescence intensity (a.u.).
With “TTAGTAGATTGCAAAATTTACATTTAGGAGTACACATTTCCGGAGTCACCTAGTGCAG”, the binding signal is 3830 fluorescence intensity (a.u.).
Regarding “AACCCTGATTACGAGTTAAGGCCCCGCGCCATTTGTGGGGCGGAGTCACCTAGTGCAG”, the binding signal is 20900 fluorescence intensity (a.u.).
As for “GAATCCTTAATTACTGGTTGTGCTGTGTGTTTGTGTTTCGCGGAGTCACCTAGTGCAG”, the binding signal is 9370 fluorescence intensity (a.u.).
